In PMC4336329 (PLoS ONE, 2015):
In all, about 310,000 compounds went through this assay and about 2,200 (0.71%) showed an effect of 50% or more. The effect is printed as a negative number. This is one part of the list.

Target: human ether-à-go-go-related gene (hERG) potassium channel (human, UniProt Q12809)
Experiment: primary screen, population patch clamp on CHO cells stably expressing hERG

human ether-à-go-go-related gene (hERG) potassium channel, sequence (Q12809 whole entry, looked up): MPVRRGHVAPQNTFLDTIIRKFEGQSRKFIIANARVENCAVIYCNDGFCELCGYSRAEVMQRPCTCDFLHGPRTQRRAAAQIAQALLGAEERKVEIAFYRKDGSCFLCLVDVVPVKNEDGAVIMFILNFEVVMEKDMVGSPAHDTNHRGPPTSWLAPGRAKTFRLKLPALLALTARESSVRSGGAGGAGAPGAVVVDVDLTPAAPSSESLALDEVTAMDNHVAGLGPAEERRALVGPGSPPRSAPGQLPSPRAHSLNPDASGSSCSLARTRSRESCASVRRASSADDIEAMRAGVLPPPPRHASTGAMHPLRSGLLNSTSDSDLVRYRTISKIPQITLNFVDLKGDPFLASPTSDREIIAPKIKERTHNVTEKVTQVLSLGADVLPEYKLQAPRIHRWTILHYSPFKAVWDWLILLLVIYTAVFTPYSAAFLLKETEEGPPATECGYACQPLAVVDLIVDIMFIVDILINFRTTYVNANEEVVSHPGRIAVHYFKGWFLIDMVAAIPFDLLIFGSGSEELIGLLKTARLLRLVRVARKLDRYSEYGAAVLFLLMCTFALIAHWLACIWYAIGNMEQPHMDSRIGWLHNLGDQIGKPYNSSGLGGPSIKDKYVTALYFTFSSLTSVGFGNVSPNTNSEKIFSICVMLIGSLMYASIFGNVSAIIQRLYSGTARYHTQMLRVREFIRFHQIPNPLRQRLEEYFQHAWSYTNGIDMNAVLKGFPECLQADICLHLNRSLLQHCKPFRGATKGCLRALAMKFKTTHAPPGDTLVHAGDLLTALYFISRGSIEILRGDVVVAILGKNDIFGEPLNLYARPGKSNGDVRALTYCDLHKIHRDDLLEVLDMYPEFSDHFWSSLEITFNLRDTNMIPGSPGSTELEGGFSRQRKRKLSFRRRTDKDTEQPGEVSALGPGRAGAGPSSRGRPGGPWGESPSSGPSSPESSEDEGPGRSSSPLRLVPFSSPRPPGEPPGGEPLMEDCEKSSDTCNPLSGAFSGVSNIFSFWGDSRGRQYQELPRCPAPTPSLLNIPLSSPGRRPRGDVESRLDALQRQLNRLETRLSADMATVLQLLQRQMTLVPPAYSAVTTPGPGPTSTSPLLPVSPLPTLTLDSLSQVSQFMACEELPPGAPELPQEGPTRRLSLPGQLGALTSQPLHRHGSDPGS

SMILES	hERG current change (%, negative = inhibition) at 1uM
COc1ccc(/C=N/n2cnnc2SCc2ccc(OC)cc2)cc1	6.43%
Cc1ccc(S(=O)(=O)N2CCCC(NC(=O)N3CCN(c4ccccc4)CC3)C2)cc1 (stereo not shown)	1.92%
O=C1Nc2ccc(F)cc2C12Nc1ccccc1-c1nnc(SCc3ccccc3Cl)nc1O2 (stereo not shown)	3%
COc1cccc(CNc2ccc(F)c(Cl)c2)c1O	-1.31%
CCOC(=O)c1c(-c2ccccc2)oc2cc(Br)c(O)c(C=O)c12	9.77%
COC(=O)Cc1ccc(NC(=S)N2CCN(c3ccc(OC)cc3)CC2)cc1	12.3%
O=c1cc(CN2CCCc3ccccc32)nc2sccn12	-0.887%
CCCCCN(C(=O)CCC(=O)OCC(=O)N(CC)C1CCCCC1)c1c(N)n(CCCC)c(=O)[nH]c1=O	13.5%
CCOC(=O)CSC1=C(C#N)C(c2ccc(C)s2)CC(=O)N1 (stereo not shown)	6.23%
O=C(NCCCN1CCN(c2cccc(Cl)c2)CC1)c1cccc(N2CCCC2=O)c1	-11.4%
O=C(CSc1nc2ccccc2[nH]1)NCc1ccco1	9.43%
Cc1cc(C)c(C(=O)CSc2n[nH]c(-c3ccncc3)n2)c(C)c1	15%
Cl.O=C(CCN1CCc2ccccc2C(O)(c2ccccc2)C1)c1ccc2c(c1)OCCO2 (stereo not shown)	13.1%
O=C(NC(=S)NCc1ccccc1)c1ccccc1F	4.85%
COc1cc(C(CCN2CCN(c3ccccc3)CC2)c2c(OC)cc(OC)c3ccc(=O)oc23)cc(OC)c1OC (stereo not shown)	6.4%
COc1cc(/C=C2/NC(=O)NC2=O)ccc1OCC(=O)Nc1ccc(F)cc1	18.9%
O=C(c1cn(-c2ccccc2)nc1-c1ccccc1)N1CCOCC1	2.21%
CC(NC(=O)c1ccccc1F)c1nnc(SCC(=O)NC2CCCC2)n1C (stereo not shown)	17.8%
CCOC(=O)CCCCC(=O)c1[nH]c(=O)[nH]c1CSc1nc(C)cc(C)n1	0.309%
C=C(C)C1CC=C(C)/C(=N/NC(=S)Nc2ccccc2)C1 (stereo not shown)	19.5%
O=C(NCCc1csc(-c2ccccc2)n1)c1ccccc1F	-1.45%
COc1ccc(C2CC(=O)Nc3cc(C)c(C)cc32)c(OC)c1OC (stereo not shown)	9.67%
CCSc1ncnc2sc3c(c12)CCC3	11.5%
COCCNC(=O)C1CCC(CNS(=O)(=O)c2ccccc2)CC1 (stereo not shown)	10.5%
COc1cccc(CN2C(=O)c3ccccc3S2(=O)=O)c1	9.93%
Clc1ccc(-c2[nH]ncc2N=Nc2ccccc2)cc1	8.48%
CCCCOC(=O)c1sc2nc(N3CCOCC3)c3c(c2c1N)CC(C)(C)OC3	11.7%
Cc1ccc2nc(NC(=O)C3CSC4(C)CCC(=O)N34)sc2c1 (stereo not shown)	7.78%

SMILES	hERG current change (%, negative = inhibition) at 1uM
COC(=O)C1=C(c2ccc(OC)c(OC)c2)C[C@@H]2CC[C@H]1N2C(=O)NCCNC(C)=O	12.2%
Cc1oc(-c2ccccc2)cc1C(=O)Nc1ccccc1	-10.7%
Cc1cc(C(=O)N(Cc2nnc(-c3ccc(Cl)cc3)o2)C(C)C)c2ccccc2n1	-16.3%
CCOc1ccc(CN(C)C(=O)c2ccc(NC(=O)CC3SC(N4CCCC4)=NC3=O)cc2)cc1 (stereo not shown)	12.6%
Nc1nc(-c2ccccc2)c(-c2ccccc2)n1N	13.2%
Cc1nn(-c2ccccc2)c(C)c1/C=N/NC(=O)c1ccccc1O	9.16%
CN(C)S(=O)(=O)N1CCN(c2ccc([N+](=O)[O-])c(N3CCOCC3)c2)CC1	6.47%
Cc1cc(=O)oc2c3c(cc(OCC(=O)N[C@@H](C)C(=O)O)c12)OC(C)(C)CC3	7.24%
Cn1cccc1/C=N/NC(=O)Cc1cccs1	11.4%
O=C1c2ccccc2C(=O)C1c1ccnc2ccccc12	11.7%
O=C(c1nc2ncccn2n1)N1CCN(c2ccccc2)CC1	10.5%
COc1ccccc1-c1nn(Cc2ccccc2)cc1C(=O)NCC(c1ccco1)N1CCCC1 (stereo not shown)	-9.9%
CCc1cc2c3c([nH]c2cc1S(=O)(=O)N1CCC2(CC1)OCCO2)CCCC3=O	17.4%
O=C(CSc1ncc(-c2ccccc2)n1CC1CCCO1)N1CCCCC1 (stereo not shown)	16.7%
CN(C)S(=O)(=O)c1ccc(S(=O)(=O)N(CC(=O)Nc2ccccc2)Cc2ccco2)cc1	14%
CN(/N=C/c1ccc(-c2ccc([N+](=O)[O-])cc2)o1)c1ccccc1	13.6%
CCn1c2ccccc2c2cc(NC(=O)CSc3nnc(-c4cccc(F)c4)o3)ccc21	5.9%
COC(=O)c1ccc(CN(c2ccc(C)cc2)S(=O)(=O)c2ccc3c(c2)OCCO3)o1	9.85%
COCCN(C(=O)CSc1n[nH]c(-c2ccccc2)n1)c1c(N)n(CC(C)C)c(=O)[nH]c1=O	24.5%
O=C(CC1(O)C(=O)N(CCc2ccccc2)c2ccccc21)c1ccccn1 (stereo not shown)	13.5%
Cc1cc(C(=O)Cn2cnc3cc([N+](=O)[O-])ccc3c2=O)c(C)n1CC1CCCO1 (stereo not shown)	10%
Cc1onc(-c2ccccc2)c1C(=O)OCC(=O)Nc1ccc(C#N)cc1	4.46%
CC1=CC(=O)C=C(C)C1=NOc1ccccc1[N+](=O)[O-]	7.38%
CC(Nc1cc(N2CCN(S(=O)(=O)N(C)C)CC2)ccc1[N+](=O)[O-])c1ccccc1 (stereo not shown)	14.2%
COc1ccc(C2(C)NC(=O)NC2=O)cc1OC (stereo not shown)	12.6%
COc1ccc(C(C)C)cc1S(=O)(=O)Nc1ccncc1	11%
CCOC(=O)c1ccccc1NC(=O)COC(=O)C1CC(=O)N(c2ccc3c(c2)OCCO3)C1 (stereo not shown)	32.3%
